# Experimental data taken from the supplement of paper PMC5499739.
# The full ranking holds about 16,000 sequences; the median of “Z-score” is about -0.37, and the highest 2% start at about 3.2. The list shows a part of the results.
# Test system: RBM10 RRM1-ZnF (GST-tagged construct)
# Assay: RNAcompete 7-mer binding Z-score; higher = stronger binding preference
# How it was run: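 A designed pool of 241 399 RNAs, each up to 41 nt and transcribed from microarray-derived DNA templates, was used at 1.5 nmol with 20 pmol of GST-tagged RBM10 constructs. The mixture, in 1 ml Hepes pH 7.8 buffer with KCl, NaCl, glycerol, DTT, BSA and glutathione Sepharose beads, was held 30 min at 4°C and then washed four times for 2 min at 4°C. Bound RNA was read out by microarray hybridisation, and enrichment of each heptamer motif was scored as a one-sided Z-score over the probes carrying it.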
row,Sequence,RNAcompete 7-mer binding Z-score
1,UUACUUU,-0.834
2,GUAAGCC,-0.178
3,CAUAAGU,-0.386
4,GUACCGU,-0.295
5,AGUAACU,-0.337
6,GAGAAGU,0.82
7,CAUACGA,-0.607
8,GCUAACG,-0.106
9,AGUCUCC,-0.733
10,UAACAAU,-0.526
11,ACUGUAU,-0.493
12,UGGAAGU,1.79
13,GAGUCCU,-0.568
14,CGGAGGC,1.16
15,AGUAUUA,-0.272
16,CCUGCAG,-0.581
17,AUACCGU,-0.604
18,CGGCGUC,-0.337
19,UGCUCUC,-0.772
20,GCAAAUC,-0.532
21,GCCACGC,-0.253
22,CGGCCCA,-0.681
23,CCUUGGA,-0.311

row,Sequence,RNAcompete 7-mer binding Z-score
1,UCCUCUU,-0.74
2,CACUACG,-0.366
3,GAGUUUA,-0.0902
4,GUGCAAG,0.826
5,CGCUACA,-0.519
6,CGCAGAC,-0.165
7,CCUCUUA,-0.85
8,GCUAAGA,-0.207
9,CGGAUAC,1.18
10,CUCAUCC,-0.831
11,GGAUCAU,0.573
12,AGCCUCC,-0.74
13,GGAGAGU,1.8
14,CUCGUUC,-0.711
15,UCUUUAG,-0.763
16,CUGAAGG,1.22
17,UUCCGUA,-0.756
18,CACUUCA,-0.792
19,CCCAGGU,0.121
20,UUGCUAU,-0.535
21,CGGAAUA,0.553
22,AGCAGUA,-0.0122
23,AUACCCA,-0.737

row,Sequence,RNAcompete 7-mer binding Z-score
1,UAUCCUU,-0.743
2,CAUUAAC,-0.746
3,CUACUAU,-0.587
4,AUCCAUC,-0.75
5,UGUGUCU,-0.353
6,CGAAGGG,2.43
7,CUGAAAA,-0.457
8,AUCACUU,-0.72
9,CCCGGGU,0.462
10,UGUACUC,-0.633
11,UCGUGGU,0.433
12,GCGUGCU,-0.24
13,AGAUUCA,-0.509
14,AUGCCAG,-0.399
15,GUCUUCC,-0.571
16,ACGCUCU,-0.688
17,GAAUGAG,1.23
18,UACAGAC,-0.295
19,CAGUAUA,-0.366
20,GCCGUCU,-0.821
21,UGUUAGC,-0.548
22,AUUUUUA,-0.662
23,AGCUCAA,-0.626

row,Sequence,RNAcompete 7-mer binding Z-score
1,CCGGUGU,0.144
2,GUUUCCG,-0.409
3,GCGCACC,-0.223
4,AUCGGAG,0.67
5,UUCGUCA,-0.646
6,CCGUAAU,-0.824
7,CGGAAAU,0.095
8,ACCGAAC,-0.649
9,ACUGUGU,-0.37
10,GUAGGAG,3.43
11,AGACUGG,0.884
12,CCGACUU,-0.938
13,UCAGACG,-0.142
14,AGUAUCA,-0.311
15,GAAGACC,-0.171
16,CUGUUGC,-0.526
17,ACUGUGG,0.803
18,CUCCGUU,-0.792
19,AAAACCC,-0.824
20,UUAUCGC,-0.785
21,ACGUCUC,-0.746
22,AUCGGAU,0.309
23,UGACAUA,-0.37

row,Sequence,RNAcompete 7-mer binding Z-score
1,GAGCUAC,-0.207
2,AGGCCGG,0.121
3,GCGGUCC,-0.243
4,AUUGGGU,2.9
5,CCGGGUC,0.527
6,AGGCCCA,-0.818
7,GUUUCUA,-0.633
8,UAGGUAG,2.35
9,AAUGACA,-0.233
10,CAUAGUC,-0.617
11,CACUCGA,-0.578
12,AAAGUGC,-0.181
13,UCCCAUU,-0.938
14,AACCCGA,-0.85
15,UUGUUUU,-0.301
16,CAUUGAA,-0.282
17,CCGUGGA,0.228
18,AGUUUCG,-0.431
19,CCCUAGC,-0.548
20,CGAACCA,-0.574
21,UGGAUUC,-0.0414
22,AACAAGU,-0.256
23,AGGCAUU,-0.298

row,Sequence,RNAcompete 7-mer binding Z-score
1,GGUAUUU,0.192
2,AGCUGCU,-0.477
3,UACCCGG,-0.301
4,GCCACCC,-0.425
5,GCUUCAC,-0.73
6,GAAUCCA,-0.561
7,CAGACAG,0.0398
8,UGGACUC,0.0138
9,CAUUAUG,-0.522
10,UAGGAGA,1.94
11,UAGCCGA,-0.548
12,UGCCCUA,-0.759
13,UUGUCCA,-0.681
14,UGGGGUG,4.74
15,CCCUUAG,-0.717
16,CAAUCUC,-0.805
17,UCCUCUG,-0.516
18,AAGGCCC,-0.324
19,UAUCCGC,-0.756
20,UAAAAGA,-0.0252
21,CGUCAUC,-0.698
22,UUUGUUC,-0.613
23,AUUAUCA,-0.6

row,Sequence,RNAcompete 7-mer binding Z-score
1,UAUGGUU,1.5
2,AGCACUU,-0.529
3,GUCAUCG,-0.152
4,AGAUAAG,0.949
5,UGUUUAG,-0.0155
6,GUUGCUU,-0.422
7,AUACGGG,1.97
8,GGCGUGC,0.738
9,GCUUACU,-0.675
10,UAGACGC,-0.331
11,GACACAG,0.456
12,CAGCCUC,-0.733
13,AGGCGGA,1.33
14,GCGUUUA,-0.535
15,UAGCCGU,-0.561
16,AUGCGAA,0.00404
17,UGUGUGG,1.89
18,GACUCGC,-0.639
19,AAGUGCG,0.592
20,GGUCUGG,0.79
21,UAUCGUG,-0.0382
22,CAAUUGU,-0.714
23,AUGGAUG,3.28

row,Sequence,RNAcompete 7-mer binding Z-score
1,GGGGUAG,4.61
2,GUACCUG,-0.529
3,UAAUGGU,0.8
4,AACGCUA,-0.435
5,CUCUCCG,-0.854
6,CAUCGUG,-0.0837
7,CGAAGUA,-0.0187
8,GAGCGCG,0.4
9,CGUGAGC,-0.279
10,CGCAACU,-0.698
11,UCGCAAU,-0.545
12,CUCUCCA,-0.642
13,ACGACGC,-0.233
14,UGUUUUU,-0.409
15,CCCUAUC,-0.87
16,GGGACAU,2.04
17,CGACGUU,-0.678
18,GAGUGGA,3.26
19,GUCCUAC,-0.675
20,CCGAUGA,-0.249
21,GCCUGAC,-0.415
22,UUUGGUA,0.365
23,ACUACCC,-0.837
